# In all, about 71,000 compounds went through this assay and about 1,800 (2.5%) were called active. The inconclusive results got no clear call from the source; some entries with a clear call stand among them for comparison. The call rests on the fitted dose curve; in most records, active means well fitted activation curve with a large enough effect in the signal ratio, with a control signal flat (not every such curve was filed as active); inconclusive means small, poorly fitted or top-dose-only effect, or effect the other way, or a change in a side signal; inactive means flat fitted curve, though single readings scatter; the % refers to the signal ratio. Potencies of inconclusive entries are doubtful fits and often do not repeat.
# Experiment: Cell signaling CRE-BLA (Fsk stim); on activity change, negative = inhibition: % of control where 0% means no effect
# Conditions: CHO CRE-bla reporter (cAMP response element driving beta-lactamase), forskolin EC10, beta-lactamase ratio; activity change, negative = inhibition: at 38.2 µM (top of the series) unless noted
# Summary of the method: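 CRE-bla CHO cells stimulated with EC10 NKH 477 (water-soluble forskolin) and compound titrations, 3 h at 37C; beta-lactamase read with CCF4 after 2 h at room temperature. Activity from 460/530 nm emission ratio, AC50 values for positive or negative modulation.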
# Potency means the concentration at half of the fitted maximal effect; tags describe the fitted curve by direction and shape.
SMILES,Potency,"activity change, negative = inhibition"
O=C(Nc1ccc2c(c1)OCO2)C1CCN(S(=O)(=O)c2cccc3cccnc23)CC1,"inconclusive: 15.8 µM [falling, single point]",–
CC1=CCC2C(=O)N(c3cccc(C(=O)N(C)C4CCCCC4)c3)C(=O)C2C1 (configuration not stated),–,inconclusive: 6.48% [at 7.6 µM]
COc1ccc(N2CCN(C(=O)c3cc4c(-c5cccc(OC)c5)nn(C)c4s3)CC2)cc1,active: 3.98 µM,–
N[C@@](CCc1ccccc1)(C(=O)O)c1ccccc1,–,inactive: 17.4% [at 7.6 µM]
COc1ccc2[nH]c3c(=O)n(Cc4ccco4)cnc3c2c1,"inconclusive: 3.98 µM [rising, partial curve]",–
Cc1ccc(SCc2[nH]nc3c2C(c2cccnc2)C(C#N)=C(N)O3)cc1 (configuration not stated),inactive,–
N#C/C(=C1/CCCCCN1)c1nnc2n1CCCCC2,–,inconclusive: 25.7% [at 7.6 µM]
Cc1nn(-c2ccccc2)c2sc(C(=O)OC3CCOC3=O)cc12 (configuration not stated),"inconclusive: 6.31 µM [rising, partial curve]",–
COc1cc2c(cc1OC)C(c1ccc3c(c1)OCO3)C1=C(CC(C)(C)CC1=O)N2 (configuration not stated),"inconclusive: 10 µM [rising, partial curve]",–
O=C(Cn1nc(-c2ccccc2)c2ccccc2c1=O)NCC1CCCO1 (configuration not stated),–,inconclusive: 15.1%
COCCOC(=O)c1c(C)oc2ccc(NS(=O)(=O)c3ccccc3)cc12,"inconclusive: 10 µM [rising, partial curve]",–
CCOC(=O)N1CCN(c2ccc(C(=O)CC)cc2F)CC1,inactive,–
CC(=O)N1CCc2cc(S(=O)(=O)CCC(=O)N3CCN(C(=O)c4ccco4)CC3)ccc21,–,inconclusive: -22%
C[C@@]12C[C@@H](O)[C@H]3[C@@H](CCC4=CC(=O)CC[C@]43C)[C@H]1CC[C@H]2C(=O)CO,inactive,–
COc1ccccc1N(C(=O)c1snc(C(N)=O)c1N)C(C(=O)NC1CCCC1)c1ccco1 (configuration not stated),–,inconclusive: 2.68%
CSc1nc(N)nc(SCCS(=O)(=O)c2ccc(Cl)cc2)c1C#N,"inconclusive: 10 µM [rising, single point]",–
CCCN1Cc2cccc(C(=O)N3CCN(c4cc(Cl)ccc4C)CC3)c2C1=O,inactive,–
CCN(CC)S(=O)(=O)c1cccc(C(=O)Nc2cc(C)nn2-c2nc(C)cc(C)n2)c1,"inconclusive: 31.6 µM [falling, single point]",–
CC(C)c1ccc(NC(=O)N2CCC(c3nc4ccccc4o3)CC2)cc1,–,inconclusive: -10.6%
CCOc1cc(C2NC(=O)NC(O)(C(F)(F)F)C2C(=O)c2ccc(Cl)cc2)ccc1O (configuration not stated),–,inconclusive: -12.6% [at 7.6 µM]
CCCn1c(C)nc2c(NC(C)CN(C)C)nc(C)nc21 (configuration not stated),inactive,–

SMILES,Potency,"activity change, negative = inhibition"
COCCCN1C(=O)C(=O)/C(=C(/O)c2ccc(OCC(C)C)cc2C)C1c1cccnc1 (configuration not stated),–,inconclusive: -14.2% [at 7.6 µM]
Clc1ccc(Cc2noc(-c3cccs3)n2)cc1,inactive,–
CC(C)(C)NC(=O)C(c1ccco1)N(Cc1ccc(F)cc1)C(=O)c1snc(C(N)=O)c1N (configuration not stated),inactive,–
CN1CCN(c2ncc3nc(CCc4ccccc4)c(=O)n(Cc4cccs4)c3n2)CC1,"inconclusive: 12.6 µM [rising, partial curve]",–
CC1CCCCN1CCNC(=O)CN1C(=O)COc2ccccc21 (configuration not stated),–,inconclusive: 20.9%
CCc1ccc(N(CC)c2ncnc3nc[nH]c23)cc1,inactive,–
CCc1cc2c(cc3c(=O)n(CC(=O)N4CCN(c5ccccn5)CC4)nc(CC)n32)s1,inactive,–
Cc1ccc(C)n1CCN1CCN(CC(=O)Nc2cc(C(F)(F)F)ccc2Cl)CC1,–,inconclusive: 11.2%
CCC(=O)N1c2ccc(S(=O)(=O)CCC(=O)N3CCN(c4ccccc4)CC3)cc2CC1C (configuration not stated),–,inconclusive: 10.6%
CCOC(=O)c1ccccc1NC(=O)CN(c1ccccc1OC)S(C)(=O)=O,–,inconclusive: 13.3% [at 7.6 µM]
CC(=O)N1CC=CC1(C)C(=O)O (configuration not stated),inactive,–
Cc1cc(N/C=C2\CCCCC2=O)no1,–,inconclusive: 7.73%
Cc1cc(NC(=O)COC(=O)c2n[nH]c3ccccc23)no1,–,inconclusive: -14.4%
CC(=O)OCc1ccco1,inactive,–
CC(=O)CC(C)C,inactive,–
Cc1cc(N)n2ncc(-c3ccccc3)c2n1,inactive,–
COc1cc(-n2c(=O)c3ccccc3n(Cc3cccnc3)c2=O)cc(OC)c1OC,–,inconclusive: 5.21%
CCN(C(=O)c1cccs1)c1nnc(-c2ccncc2)s1,–,inconclusive: 6.23%
CCCn1c(C)nc2c(NCCCN3CCCCC3C)nc(C)nc21 (configuration not stated),inactive,–
Cc1ccc(C(NC(=O)N2CCOCC2)=C(Cl)Cl)cc1F,"inconclusive: 3.16 µM [falling, full curve]",–
c1cn2c(NC3CCCC3)c(-c3ccc(N4CCOCC4)cc3)nc2cn1,–,inconclusive: -1%

SMILES,Potency,"activity change, negative = inhibition"
COc1cc(CO)cc(-c2cc(CO)cc(OC)c2OC)c1OC,–,inconclusive: -4.48%
CCOc1ccccc1NS(=O)(=O)c1ccc(OC)c(OC)c1,inactive,–
NC(=O)c1sc2nccc(Nc3ccccc3)c2c1N,–,inconclusive: -15.3%
CCn1nc(NC(=O)c2ccccn2)c2cc3cc(C)ccc3nc21,"inconclusive: 10 µM [rising, partial curve]",–
Cc1ccc(S(=O)(=O)Nc2nc(C)cc(NCCN)n2)cc1,–,inconclusive: 26.4% [at 7.6 µM]
Cc1nnc(NC(=O)CSc2nc3c(c(=O)n2C)SC(C)C3)s1 (configuration not stated),–,inconclusive: 24.6%
COCCn1c(C)cc(C(=O)COC(=O)c2ccc3ncsc3c2)c1C,–,inconclusive: -1.78%
COc1ccc(CC(=O)N(Cc2cc3cc(OC)ccc3[nH]c2=O)C(C)C)cc1,"inconclusive: 15.8 µM [rising, single point]",–
CCOC(=O)N1CCC(c2cc(=O)n3[nH]c(C)c(-c4ccc(F)cc4)c3n2)CC1,inactive,–
O=C(Nc1nc(-c2ccc(S(=O)(=O)N3CCCC3)cc2)cs1)c1cccs1,inactive,–
O=C(O)[C@H]1CN(CCCP(=O)(O)O)CCN1,inactive,–
O=C(C1CCC1)N(CCc1ccccc1)Cc1nc2ccccc2c(=O)[nH]1,–,inconclusive: -8.46%
Cc1cc(C)nc(-n2nc(C)c(Oc3ccccc3O)c2C)n1,"inconclusive: 10 µM [rising, partial curve]",–
CCOc1nc(C)ccc1-c1noc(-c2ccccn2)n1,inactive,–
Cc1cc(C)c2c3c(c(-c4ccccc4)n2n1)c(=O)n(C)c(=O)n3C,"inconclusive: 0.0398 µM [rising, partial curve, poor fit]",–
CC(C)OC(=O)c1c(NC(=O)CCn2nnc3ccccc32)sc2c1CCCC2,"inconclusive: 10 µM [rising, partial curve]",–
COc1ccc(CNC(=O)C2CCCN2S(=O)(=O)c2ccccc2)cc1 (configuration not stated),–,inconclusive: 9.85% [at 7.6 µM]
COc1ncc2nc(-c3ccc(Cl)cc3)c(=O)n(-c3ccccc3)c2n1,"inconclusive: 12.6 µM [rising, partial curve]",–
CCC(=C(CC)c1ccc(O)cc1)c1ccc(O)cc1,inactive,–
c1csc(C2C3=C(Nc4ncnn42)c2ccccc2OC3)c1 (configuration not stated),–,inconclusive: 16.3%
O=C(CSc1nnc(CN2CCCCCC2=O)n1-c1ccccn1)NCC(F)(F)F,"inconclusive: 2.51 µM [falling, single point]",–

SMILES,Potency,"activity change, negative = inhibition"
COc1ccc(-c2nc(C#N)c(NCCc3ccccc3)o2)cc1OC,"inconclusive: 3.98 µM [rising, partial curve]",–
Cc1nn(-c2ccc(F)cc2)c2sc(C(=O)OCC(=O)N3CCC(C)CC3)cc12,"inconclusive: 3.98 µM [rising, partial curve]",–
CCOC(=O)N1CCC(NC(=O)CN2C(=O)CCSc3ccccc32)CC1,inactive,–
Cn1cccc1C(=O)OCC(=O)c1cc2ccccc2o1,"inconclusive: 3.16 µM [falling, single point]",–
Cn1c(=O)c2c(nc(SCc3cccnc3)n2Cc2ccc(F)cc2)n(C)c1=O,inactive,–
COc1ccc(Cl)cc1NC(=O)CSc1nnc(Cc2cccn2C)n1-c1ccc(F)cc1,–,inconclusive: -14.7%
CN(C)Cc1ccccc1-c1nc(N(C)C)c2ccccc2n1,active: 3.98 µM,–
COc1ccc(C2CC(c3ccccc3)Nc3nc(NC(=O)c4ccco4)nn32)cc1 (configuration not stated),–,inconclusive: -27.8%
O=C(NCc1cccnc1)C1CCN(S(=O)(=O)c2cccs2)CC1,–,inconclusive: 1.2%
O=C(NC1CCCCC1)C(c1ccncc1)N(CC1CCCO1)C(=O)C(F)(F)F (configuration not stated),"inconclusive: 12.6 µM [rising, single point]",–
CCOc1nc(-c2ccccc2O)nc2ccccc12,–,inconclusive: 20.3%
COc1ccc(C2CC(c3cc(OC)ccc3OC)n3nnnc3N2)cc1 (configuration not stated),–,inconclusive: 24.5%
CCC(Sc1nc(=O)cc(N)n1CCc1ccccc1)C(=O)Nc1ccccc1C#N (configuration not stated),–,inconclusive: -12.3%
O=C(O)C/C(=C\c1ccccc1)C(=O)O,–,inactive: 4.75% [at 7.6 µM]
COc1ccc(Oc2ncc3nc(-c4cccc(C#N)c4)c(=O)n(CCC#N)c3n2)cc1,–,inconclusive: 21.5%
CCN(CC)S(=O)(=O)c1ccc2c(c1)nc(SCn1nnc3ccccc3c1=O)n2CC,"inconclusive: 5.01 µM [falling, single point]",–
CC(C)N(C)C1CCN(C(=O)Nc2ccc(Cl)c(Cl)c2)CC1,–,inconclusive: 11.2%
COc1ccc(-c2nc3cnc(Oc4ccccc4)nc3n(CCC#N)c2=O)cc1,–,inconclusive: -10.8%
CCCCNc1cc(NC(C)=O)cc2cc(OC)c(OC)cc12,"inconclusive: 10 µM [rising, partial curve]",–
